# Several values for one entry are separate records, joined by “and”; a condition that tells them apart may be missing. Equal values may be shown once. The inconclusive results got no clear call from the source; some entries with a clear call stand among them for comparison. For some of these results: A potency beside an inconclusive call is a rough fit, not a confirmed value. Activity calls are given as the source filed them. Unless noted, calls follow the shape of the dose curve; as a rule, active = well fitted curve in the direction sought with a large enough effect in the repeat runs; inconclusive = weak or mixed curves; inactive = no such curve, though single readings can be large; an effect the other way counts as inactive or inconclusive.
# How the values were obtained:
# [1] = qHTS assay to identify small molecule antagonists of the constitutive androstane receptor (CAR) signaling pathway - cell viability counter screen (AID 1224837); also: % is scaled to controls: 0 for no effect and ±100 for the full control effect; nearly all actives have a fitted effect of over 45% in size
# How it was run: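 HepG2 cells stably carrying hCAR and CYP2B6-2.2kb reporter, stimulated with 50 nM CITCO and compounds at 15 concentrations for 23 h at 37 C. Viability measured by CellTiter-Fluor fluorescence.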
# [2] = qHTS assay to identify small molecule agonists of H2AX (AID 1224845; active = well fitted activation curve with a large enough effect in the signal ratio in the repeat runs, not every such curve was filed as active; inconclusive = weak or mixed curves; the % refers to the signal ratio; also: potency is read from the fitted curve at half-maximal effect; as to activation (H2AX phosphorylation): % is scaled to controls: 0 for no effect and ±100 for the full control effect); conditions: CHO-K1 phospho-H2AX Ser139 HTRF, 3 h; activation (H2AX phosphorylation): at 154 µM (top of the series) unless noted
# How it was run: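 Wild-type CHO-K1 cells plated overnight, then exposed 3 hr at 37C to compounds at 15 concentrations (0.76% DMSO). Lysed, then HTRF anti-pH2AX(S139)-cryptate/anti-H2AX-d2 detection after 24 hr at room temperature; emissions 665 and 620 nm.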
# [3] = molecular target: Nuclear receptor subfamily 1 group I member 3 (Homo sapiens) (UniProt Q14994); test: qHTS assay to identify small molecule antagonists of the constitutive androstane receptor (CAR) signaling pathway (AID 1224838); also: nearly all actives have a fitted effect of over 40% in size; also: potency is read from the fitted curve at half-maximal effect
# How it was run: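 HepG2 cells stably carrying hCAR and a CYP2B6-2.2kb luciferase reporter, seeded 4 hrs before compound (15 concentrations). Stimulated with 50 nM CITCO for 24 hr at 37 C. ONE-Glo luminescence read after 30 min at room temperature.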
# [4] = qHTS assay to identify small molecule antagonists of the estrogen related receptor signaling pathway with the pleiotropic PPARgamma coactivator (PGC) from Tox21 10K library (AID 1224841; call rule not given here; also: actives are mostly falling curves and most rising ones were filed inactive; nearly all actives have a fitted effect of over 50% in size; also: potency is read from the fitted curve at half-maximal effect)
# How it was run: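 PGC/ERR cell line, 2,000 cells/well, pre-incubated 6 hours at 37 C, then exposed to compounds for 18 hours at 37 C; luciferase read with One-Glo luminescence after 30 min at room temperature.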
# [5] = qHTS assay to identify small molecule agonists of the estrogen related receptor signaling pathway with the pleiotropic PPARgamma coactivator (PGC) from Tox21 10K library (AID 1224842); also: potency is read from the fitted curve at half-maximal effect; nearly all actives have a fitted effect of over 15% in size
# How it was run: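 PGC/ERR reporter cells (NTP line) were seeded 2,000 per well, rested 6 h at 37 C/5% CO2, then pin-dosed with compounds in DMSO for 18 h at 37 C; luciferase read by One-Glo luminescence after 30 min at room temperature.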
# [6] = molecular target: Nuclear receptor subfamily 1 group I member 3 (Homo sapiens) (UniProt Q14994); test: qHTS assay to identify small molecule agonists of the constitutive androstane receptor (CAR) signaling pathway (AID 1224839); also: nearly all actives have a fitted effect of over 15% in size; also: potency is read from the fitted curve at half-maximal effect; as to activation: % is scaled to controls: 0 for no effect and ±100 for the full control effect
# How it was run: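 HepG2 cells stably expressing hCAR and a CYP2B6-2.2kb luciferase reporter were treated with compounds at 15 concentrations plus 0.75 uM PK11195 (final) for 24 h at 37 C; luminescence was read after ONE-Glo addition.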
# [7] = qHTS assay to identify small molecule antagonists of the estrogen related receptor signaling pathway with the pleiotropic PPARgamma coactivator (PGC) from Tox21 10K library - cell viability counter screen (AID 1224840; active = well fitted cell-killing curve with a large enough effect in the repeat runs, not every such curve was filed as active; inconclusive = weak or mixed curves, or effect the other way; inactive = no such curve, though single readings can be large or run the other way; also: nearly all actives have a fitted effect of over 40% in size; also: potency is read from the fitted curve at half-maximal effect)
# How it was run: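 PGC/ERR cells (2,000/well) plated 6 h, then compound-treated for 17.5 h at 37 C. Viability measured by CellTiter-Fluor fluorescence after 30 min at 37 C, multiplexed with the pathway assay.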
# [8] = molecular target: Thyrotropin receptor (Homo sapiens) (UniProt P16473); test: qHTS assay to identify small molecule agonists of the thyroid stimulating hormone receptor (TSHR) signaling pathway (AID 1224843; calls by dose curve; also: nearly all actives have a fitted effect of over 45% in size; also: potency is read from the fitted curve at half-maximal effect; as to activation: % is scaled to controls: 0 for no effect and ±100 for the full control effect); conditions: TSHR-HEK293 cells, cAMP HTRF, agonist mode, 30 min; activation: at 92.4 µM (top of the series) unless noted
# How it was run: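 TSHR-expressing HEK293 cells (800 per well) were exposed to compounds for 30 min at room temperature. cAMP was then detected by HTRF competition with cAMP-d2 and anti-cAMP cryptate, read after 1 h at room temperature. Fifteen concentrations, triplicate.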
# [9] = qHTS assay to identify small molecule agonists of the hypoxia (HIF-1) signaling pathway - cell viability counter screen (AID 1224844; calls by dose curve; also: nearly all actives have a fitted effect of over 50% in size; also: potency is read from the fitted curve at half-maximal effect)
# How it was run: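 HRE-bla ME-180 cells, 2,000/well in 0.5% dialyzed FBS medium, treated 17 h at 37C with compounds. Viability read in the same wells as the bla reporter, by CellTiter-Glo luminescence after 30 min at room temperature.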
# Tags tell the direction and shape of the fitted curve or compound fluorescence and quenching.
# Chain of UniProt Q14994 (Q14994 whole entry, looked up): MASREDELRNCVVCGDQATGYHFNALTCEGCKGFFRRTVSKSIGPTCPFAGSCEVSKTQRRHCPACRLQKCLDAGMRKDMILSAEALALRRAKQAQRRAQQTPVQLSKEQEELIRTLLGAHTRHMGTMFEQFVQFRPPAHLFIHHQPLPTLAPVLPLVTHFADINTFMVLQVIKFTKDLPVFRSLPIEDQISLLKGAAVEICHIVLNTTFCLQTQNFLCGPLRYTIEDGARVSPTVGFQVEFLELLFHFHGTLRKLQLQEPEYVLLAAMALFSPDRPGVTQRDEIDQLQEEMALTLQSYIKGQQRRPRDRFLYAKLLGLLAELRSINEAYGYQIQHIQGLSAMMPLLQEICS
# Chain of UniProt P16473 (P16473 whole entry, looked up): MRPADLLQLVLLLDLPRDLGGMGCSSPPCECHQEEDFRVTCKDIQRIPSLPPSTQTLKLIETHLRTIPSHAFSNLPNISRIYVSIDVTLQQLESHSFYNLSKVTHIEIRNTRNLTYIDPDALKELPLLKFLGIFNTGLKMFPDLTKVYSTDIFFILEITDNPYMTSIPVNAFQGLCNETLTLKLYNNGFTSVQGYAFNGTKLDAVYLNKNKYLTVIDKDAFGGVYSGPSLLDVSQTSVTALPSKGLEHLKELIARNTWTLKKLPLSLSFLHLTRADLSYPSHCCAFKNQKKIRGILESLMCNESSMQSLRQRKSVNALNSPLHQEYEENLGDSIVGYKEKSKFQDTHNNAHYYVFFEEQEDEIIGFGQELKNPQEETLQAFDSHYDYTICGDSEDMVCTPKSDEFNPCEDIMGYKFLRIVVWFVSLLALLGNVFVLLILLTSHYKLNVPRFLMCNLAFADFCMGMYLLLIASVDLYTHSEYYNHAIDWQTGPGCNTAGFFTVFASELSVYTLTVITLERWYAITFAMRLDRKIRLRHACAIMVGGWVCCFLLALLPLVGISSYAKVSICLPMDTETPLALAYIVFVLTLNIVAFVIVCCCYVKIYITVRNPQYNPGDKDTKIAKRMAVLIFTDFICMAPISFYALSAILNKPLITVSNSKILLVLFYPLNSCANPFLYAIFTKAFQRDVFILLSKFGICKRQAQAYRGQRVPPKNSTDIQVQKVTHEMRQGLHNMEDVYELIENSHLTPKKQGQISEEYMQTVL
compound,measurement,setting,value
CCCCCC[C@@H](O)C/C=C\CCCCCCCC(=O)OC,Potency,[1],inactive
same,Potency,[2],inactive
CCCc1ccccc1O,Potency,[3],inactive
Cc1cc(=O)n(-c2ccccc2)n1C,Potency,[3],"inconclusive: 7.5 µM [inhibitor, full curve, poor fit]"
same,Potency,[4],inactive
NC(=O)c1ccccc1C(N)=O,Potency,[4],"inconclusive: 38.7 µM [falling, partial curve, poor fit]"
COC1=CC(=O)C[C@@H](C)[C@]12Oc1c(Cl)c(OC)cc(OC)c1C2=O,Potency,[4],inactive
C[C@@H](O)[C@H]1C(=O)N2C(C(=O)O)=C(S[C@@H]3CN[C@H](C(=O)N(C)C)C3)[C@H](C)[C@H]12,Potency,[5],"inconclusive: 13.3 µM [activator, single point]"
O=C1c2ccccc2C(=O)c2c(O)c(O)cc(O)c21,Potency,[6],"inconclusive: 68.6 µM [activator, partial curve]"
same,Potency,[7],"inconclusive: 30.6 µM [cytotoxic, partial curve]"
same,Potency,[2],"inconclusive: 45 µM [cytotoxic, partial curve]"
Cc1ccc(C(C)C)cc2c(C)ccc1-2,Potency,[6],"inconclusive: 29.8 µM [activator, partial curve]"
CCCCCCCCCCCC(=O)OCC(C)OC(=O)CCCCC(=O)O (stereo unspecified),Potency,[6],inactive
same,Potency,[4],"inconclusive: 4.73 µM [falling, partial curve, poor fit]"
O=C1CC[C@@H](C(=O)O)N1,Potency,[6],inactive
CCC(=O)c1ccc2c(c1)N(CCCN(C)C)c1ccccc1S2,Potency,[6],inactive
same,Potency,[7],"inconclusive: 23.7 µM [cytotoxic, partial curve]"
CCCCNS(=O)(=O)c1ccc(C)cc1,Potency,[6],"inconclusive: 54.5 µM [activator, partial curve]"
CC1(C)C(C=C(Cl)Cl)C1C(=O)OCc1cccc(Oc2ccccc2)c1 (stereo unspecified),Potency,[6],active: 6.81 µM and active: 6.11 µM
Cc1ccc(-n2nc(C(C)(C)C)cc2NC(=O)Nc2ccc(OCCN3CCOCC3)c3ccccc23)cc1,Potency,[6],"inconclusive: 15 µM [activator, partial curve]"
same,Potency,[4],"inconclusive: 1.06 µM [falling, partial curve]"
same,Potency,[8],"inconclusive: 15 µM [activator, partial curve]"
same,Potency,[9],"inconclusive: 21.3 µM [cytotoxic, partial curve, poor fit]"
same,Potency,[2],active: 49.2 µM
COc1ccc(-c2cc(=S)ss2)cc1,Potency,[6],active: 23.7 µM
O=C(O)CCC(=O)OC[C@@H](NC(=O)C(Cl)Cl)[C@H](O)c1ccc([N+](=O)[O-])cc1,Potency,[6],inactive
same,Potency,[7],inactive
Cc1nc2ccccc2c(=O)o1,Potency,[6],inconclusive: 61.4 µM [activator]
CC(C)(C)CC(C)(C)c1ccc(Nc2ccc(C(C)(C)CC(C)(C)C)cc2)cc1,Potency,[6],"inconclusive: 2.68 µM [activator, partial curve, poor fit]"
CC(=O)OCCN(CCOC(C)=O)c1ccc(N=Nc2ccc([N+](=O)[O-])cc2C#N)cc1,Potency,[6],"inconclusive: 54.5 µM [activator, partial curve]"
same,Potency,[4],"inconclusive: 0.193 µM [falling, full curve, poor fit]"
same,activation,[8],inconclusive: -61.4%
same,Potency,[2],"inconclusive: 56.6 µM [falling, partial curve]"
CC(C)OC(=O)C(O)(CC(=O)O)CC(=O)O,Potency,[6],"inconclusive: 61.1 µM [activator, partial curve]"
c1cc[c]([Bi]([c]2ccccc2)[c]2ccccc2)cc1,Potency,[6],active: 15.4 µM
same,Potency,[4],"inconclusive: 30.6 µM [falling, partial curve]"
same,Potency,[8],"inconclusive: 27.3 µM [activator, partial curve]"
same,Potency,[2],"inconclusive: 113 µM [activator, single point]"
CCc1cc2cc(OC)c(OC)cc2c(Cc2ccccc2)n1,Potency,[6],"inconclusive: 13.3 µM [activator, partial curve]"
O=C1CCCCCCCCCCOCCCCO1,Potency,[6],inactive
O[Si](c1ccccc1)(c1ccccc1)c1ccccc1,Potency,[6],active: 30.6 µM
same,Potency,[7],inconclusive: 68.6 µM [cytotoxic]
same,Potency,[8],active: 48.6 µM
CCOc1ccc(NC(C)=O)cc1N,Potency,[6],"inconclusive: 62 µM [activator, partial curve]"
same,Potency,[4],inactive
CCCOC(=O)c1c(Cl)c(Cl)c(Cl)c(Cl)c1C(=O)OCCC,Potency,[6],"inconclusive: 54.5 µM [activator, partial curve]"
C=CCOCC(CO)(COCC=C)COCC=C,Potency,[6],"inconclusive: 24.6 µM [activator, partial curve]"
same,Potency,[7],inactive
CC/C=C\CCOC(C)=O,Potency,[6],inactive
same,Potency,[4],inactive
COc1ccc2[nH]c(S(=O)Cc3ncc(C)c(OC)c3C)nc2n1 (stereo unspecified),Potency,[6],active: 26.6 µM
same,Potency,[4],"inconclusive: 33.5 µM [falling, single point]"
CCCCCCCCCCCCSC,Potency,[6],"inconclusive: 61.1 µM [activator, partial curve, poor fit]"
C=C1CC[C@H](O)CC1=C/C=C1\CCC[C@]2(C)[C@@H]([C@H](C)/C=C/[C@H](C)C(C)C)CC[C@@H]12,Potency,[6],"inconclusive: 68 µM [activator, partial curve, poor fit] and inconclusive: 54.5 µM [activator, partial curve]"
same,Potency,[7],"inconclusive: 48.6 µM [cytotoxic, partial curve]"
same,Potency,[8],active: 21.5 µM and active: 34.4 µM
same,Potency,[2],inconclusive: 99.9 µM [inhibitor]
same,activation (H2AX phosphorylation),[2],inconclusive: 9.15%
O=S(=O)(O)c1ccc(O)c2ncccc12,Potency,[6],"inconclusive: 38.2 µM [activator, partial curve]"
O=C(O)c1cc(-c2ccc(F)cc2F)ccc1O,Potency,[6],"inconclusive: 21.1 µM [activator, partial curve, poor fit]"
same,Potency,[7],inactive
same,Potency,[4],active: 9.44 µM
O=C1CCCCC1,Potency,[6],inactive
OCCCCCCCCCCCCBr,Potency,[6],"inconclusive: 69.6 µM [activator, partial curve, poor fit]"
same,Potency,[7],"inconclusive: 17.5 µM [cytotoxic, full curve]"
same,Potency,[9],active: 44.3 µM
COc1ccc(NC(=O)CC(C)=O)cc1,Potency,[6],inactive
CC(C)(C)C(O)/C=C/c1ccc2c(c1)OCO2 (stereo unspecified),Potency,[6],inconclusive: 29.8 µM [activator]
CCOC(=O)C(C)Oc1ccc(Oc2cnc3cc(Cl)ccc3n2)cc1 (stereo unspecified),Potency,[6],"inconclusive: 62.6 µM [activator, partial curve]"
CN(C)C(=O)Nc1ccc(Oc2ccc(Cl)cc2)cc1,Potency,[6],active: 30.6 µM
same,Potency,[4],"inconclusive: 34.4 µM [falling, partial curve, poor fit]"
same,Potency,[8],inconclusive: 13.7 µM [inhibitor]
CC1=C(/C=C/C(C)=C/C=C/C(C)=C/CO)C(C)(C)CCC1,Potency,[6],"inconclusive: 55.1 µM [activator, partial curve] and inconclusive: 64.4 µM [activator, partial curve]"
same,Potency,[7],"inconclusive: 57.4 µM [cytotoxic, partial curve]"
same,Potency,[9],"inconclusive: 57.9 µM [cytotoxic, single point]"
Cc1ccc(C)c(O)c1,Potency,[6],inactive
Cc1ccc2c(c1)CCCN2,Potency,[6],"inconclusive: 68.6 µM [activator, single point]"
Brc1nc2ccccc2s1,Potency,[6],"inconclusive: 54.5 µM [activator, partial curve]"
CCc1ccc2c(c1)C(=O)c1ccccc1C2=O,Potency,[6],active: 27.3 µM
CC(C)OC(=O)c1ccccc1C(=O)OC(C)C,Potency,[6],"inconclusive: 54.5 µM [activator, partial curve]"
O=C(OCC1CO1)C1CCCCC1C(=O)OCC1CO1 (stereo unspecified),Potency,[6],inactive
same,Potency,[4],inconclusive: 68.7 µM
same,Potency,[9],inactive
same,Potency,[2],inconclusive: 101 µM [activator]
CCCCC(CC)COC(=O)/C=C\C(=O)OCC(CC)CCCC (stereo unspecified),Potency,[6],"inconclusive: 30.6 µM [activator, partial curve, poor fit]"
same,Potency,[8],"inconclusive: 54.4 µM [inhibitor, partial curve]"
O=NN(CCCl)C(=O)NC1CCCCC1,Potency,[6],inactive
same,Potency,[2],inactive
CCNc1cc(O)ccc1C,Potency,[6],"inconclusive: 53.9 µM [activator, partial curve]"
same,activation,[8],inconclusive: 23.8%
same,Potency,[2],"inconclusive: 99.6 µM [falling, partial curve]"
CC1=C(C(=O)O)N2C(=O)[C@@H](NC(=O)[C@H](N)c3ccc(O)cc3)[C@H]2SC1,Potency,[6],inactive
same,Potency,[9],inactive
CC(C)(C)c1csc(-c2cc3cc(OCc4ccccc4CC(=O)O)ccc3o2)n1,Potency,[6],"inconclusive: 30.6 µM [activator, partial curve]"
same,Potency,[9],"inconclusive: 9.77 µM [cytotoxic, partial curve, poor fit]"
same,Potency,[2],"inconclusive: 127 µM [rising, partial curve, poor fit]"
Clc1ccc(Sc2cc(Cl)c(Cl)cc2Cl)cc1,Potency,[6],"inconclusive: 48.6 µM [activator, partial curve]"
same,Potency,[8],"inconclusive: 24.3 µM [inhibitor, partial curve, poor fit]"
COc1ccc(/C=C/C(=O)c2ccc(OC)cc2OC)cc1,Potency,[6],active: 21.1 µM
same,Potency,[2],inactive
CN(CCCN1c2ccccc2CCc2ccccc21)CC(=O)c1ccc(Cl)cc1,Potency,[6],"inconclusive: 13.3 µM [activator, partial curve]"
same,Potency,[9],"inconclusive: 23.9 µM [cytotoxic, partial curve, poor fit]"
CCO[Si](CCC1CCC2OC2C1)(OCC)OCC (stereo unspecified),Potency,[7],inactive
COc1ccc(C(=O)c2ccc(OC)cc2O)c(O)c1,Potency,[6],active: 9.76 µM
same,Potency,[5],active: 4.89 µM
same,Potency,[2],"inconclusive: 9.04 µM [rising, full curve]"

# Source: PubChem BioAssay (Tox21)
